# Screen size: about 420,000 compounds; about 50,000 (12%) were called active. Inconclusive means that the source gave no clear call. Such entries were picked first, then a sample of the others. The call rests on the fitted dose curve; in most records, active means well fitted inhibition curve with a large enough effect; inconclusive means small, poorly fitted or top-dose-only effect; inactive means flat fitted curve, though single readings scatter. No potency is given beside an inconclusive call; the fits are too rough. *1 amine or outer side, *2 acyl side, *3 side chain or, on linkers, in order; H or OH if unused. Where a SMILES comes first, the peptide text is derived from it. Bridges are numbered along the chain shown (N, C = ends). [ ]: non-standard residue; d: D form. The star is where a group is joined. X12 = NC1=N[C@@H]([C@H](N[*:1])C(=O)[*:2])C[C@H](O)N1; ΔAla(Z-3-ureido) = NC(=O)N/C=C(\N)C(=O)O; β3hOrn = NCCC[C@H](N)CC(=O)*; Dap = NC[C@H](N)C(=O)O
# Assay: qHTS for Inhibitors of human tyrosyl-DNA phosphodiesterase 1 (TDP1): qHTS in cells in presence of CPT; further: nearly all actives have a fitted effect of over 55% in size
# Conditions: chicken DT40 Tdp1-/-;hTDP1 cells + 20 nM CPT, ATP luminescence, 48 h; series mostly up to 46.2 µM
# Summary of the method: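 Chicken DT40 Tdp1-/- cells stably complemented with human TDP1 were seeded at 400 cells/well in medium containing 20 nM camptothecin, exposed to pin-transferred compounds, and grown at 37 °C for at least 48 hr. Viability was read as ATP luminescence.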
# Potency means the concentration at half of the fitted maximal effect; tags describe the fitted curve by direction and shape.
row,SMILES,Potency
1,N#C/C(=C\c1ccc(O)c(O)c1)C(=O)Nc1cccc2ncccc12,"inconclusive [inhibitor, single point]"
2,CC(=O)N1Cc2ccccc2CC1C(=O)O (stereo not drawn),"inconclusive [inhibitor, partial curve, poor fit]"
3,COCc1ccc([C@@H]2C[C@H]3CN(Cc4cccc(Cl)c4)C(=O)[C@]34CCCN24)o1,"inconclusive [inhibitor, single point]"
4,CC(C)CCOc1ccccc1C(N)=O,inactive
5,COc1ccccc1N1CCN(/N=C/c2cc(OC)c(O)c(OC)c2)CC1,"inconclusive [inhibitor, single point]"
6,CCN(CC)C(=O)c1ccc(Nc2nnc(-c3ccc(C)c(S(=O)(=O)NC)c3)c3ccccc23)cc1,active: 25.9 µM
7,CC(=O)Nc1ccc(-c2ccnc3c2CC(C)(C(=O)NCC2CC2)O3)cc1 (stereo not drawn),inactive
8,Cc1onc(-c2ccccc2)c1-c1csc(N/N=C/c2ccccc2Cl)n1,"inconclusive [inhibitor, single point]"
9,Cc1cc(C(=O)Nc2sc3c(c2C#N)CCC(C(C)(C)C)C3)no1 (stereo not drawn),"inconclusive [inhibitor, single point]"
10,CC(C)Sc1ccc([N+](=O)[O-])cc1C(=O)Nc1ccncc1,inactive
11,C/C=C1/C(=O)C[C@@H]2[C@H]3CCC4=CC(=O)CC[C@]4(C)[C@@H]3CC[C@]12C,"inconclusive [inhibitor, single point]"
12,COc1ccc(OC)c(C2CC(=O)c3c([nH]c(C(=O)OC(C)C)c3C)C2)c1 (stereo not drawn),active: 0.82 µM
13,CCCN(C(=O)c1cc2c(=O)[nH]c3ccc(C)cc3c2s1)c1ccc(CC)cc1,inactive
14,CCn1c(COc2ccc3c(c2)OCO3)nnc1SCC(=O)c1ccccc1,"inconclusive [inhibitor, single point]"
15,CCCCN(Cc1cc2cc(C)ccc2[nH]c1=O)C(=O)c1ccccn1,"inconclusive [inhibitor, single point]"
16,CCOC(=O)C1CCCN(C(=O)c2nn(-c3ccc(C)cc3)c(=O)n(C)c2=O)C1 (stereo not drawn),inactive
17,COc1ccc2c(c1)C(=O)CC(c1ccccc1)O2 (stereo not drawn),"inconclusive [inhibitor, partial curve]"
18,COc1ccc(OC)c2c1sc(=NC(=O)C(C)C)n2C,active: 23.1 µM
19,CCOc1ccc(CNS(=O)(=O)c2ccc3c(c2)CCCN3C(C)=O)cc1OC,"inconclusive [inhibitor, single point]"
20,O=C1CSC(=S)N1c1ccc(Cl)c(Cl)c1,inactive
21,Cc1noc(C)c1S(=O)(=O)N1CCCC(C(=O)N2CCc3ccccc3C2)C1 (stereo not drawn),"inconclusive [inhibitor, single point]"
22,COc1ccccc1-c1cc(C(=O)N2CCN(c3ccccc3OC)CC2)no1,active: 18.4 µM
23,C/C(=N\NC(=O)c1ccccc1OCc1ccc(F)cc1)c1ccccn1,active: 4.61 µM
24,CCCCNS(=O)(=O)c1ccc(NC(=O)c2c(-c3ccccc3Cl)noc2C)cc1,inactive
25,COC(=O)c1sc(NC(=O)COc2c(C)cccc2C)nc1C,inactive

row,SMILES,Potency
1,CCOC(=O)c1sc(NC(=O)CC2OC(=O)c3ccccc32)nc1C (stereo not drawn),inactive
2,CC(OC(=O)c1ccccc1Nc1ccc(SC(F)F)cc1)C(N)=O (stereo not drawn),"inconclusive [inhibitor, single point]"
3,CNc1ncc(C(=O)c2ccc(Cl)c(Cl)c2)s1,"inconclusive [inhibitor, partial curve]"
4,COc1ccc(C2=C(C)C(=O)N(Cc3ccc(C(=O)NCc4cccc(C)c4)cc3)S2(=O)=O)cc1,"inconclusive [inhibitor, single point]"
5,Cc1ccccc1C(=O)c1ccccc1C(=O)c1ccccc1,"inconclusive [inhibitor, single point]"
6,Cc1ccc(NC2=C(Cl)C(=O)OC2OC(C)C)cc1 (stereo not drawn),inactive
7,COC(=O)c1ccc(CN2CCC(Oc3cccc(C(=O)N4CCCC4)c3)CC2)cc1,"inconclusive [inhibitor, partial curve, poor fit]"
8,COC(=O)C1=C(C)N(Cc2ccccc2)C(=O)N[C@H]1c1cccs1,"inconclusive [inhibitor, single point]"
9,NCCC[C@H](N)CC(=O)N[C@H]1CNC(=O)[C@H]([C@H]2C[C@H](O)NC(N)=N2)NC(=O)/C(=C/NC(N)=O)NC(=O)[C@H](CO)NC(=O)[C@H](CO)NC1=O (β3hOrn-[Dap]SS[ΔAla(Z-3-ureido)][X12]; lactam 1-C),inactive
10,O=C(COc1ccc(F)cc1)Nc1ccc2nc(SCC(=O)N3CCOCC3)sc2c1,active: 10.3 µM
11,Cc1cc(O)cc(O)c1/C=N/NC(=O)c1ccc2c(c1)OCCO2,active: 5.8 µM
12,COc1ccc(-c2noc(COc3cc(C)ccc3C)n2)cc1OC,"inconclusive [inhibitor, single point]"
13,CCOC(=O)[C@@H]1[C@H]2COc3cc(OC)ccc3[C@@H]2N2C(=O)N(c3cccc(F)c3)C(=O)[C@@]12C,"inconclusive [inhibitor, partial curve, poor fit]"
14,Cc1ccc(-c2cnc3cc(C)nn3c2)cc1,inactive
15,O=C(/C=C/c1ccc(Cl)cc1Cl)c1ccc[nH]1,"inconclusive [inhibitor, single point]"
16,COc1cc2c(cc1OC)n(Cc1cccc(C(F)(F)F)c1)c(=O)n1nc(-c3ccccc3)nc21,inactive
17,COc1ccc(C(CNC(=O)c2ccc(Br)o2)N2CCN(C)CC2)cc1 (stereo not drawn),inactive
18,CCc1ccccc1NC(=O)CN1CCN(C(=O)CNC(=O)c2ccc(-c3ccccc3)cc2)CC1,active: 4.61 µM
19,CC(=O)c1cccc(NC(=O)c2nc(-c3ccccc3)n(-c3ccccc3)n2)c1,active: 20.6 µM
20,COc1ccc(C2CC(c3ccc(F)cc3)n3nc(NC(=O)c4ccco4)nc3N2)cc1 (stereo not drawn),inactive
21,NC(=O)NNc1cccc(Cl)n1,inactive
22,COc1ccc(CNS(=O)(=O)NCc2ccc(OC)c(OC)c2)cc1,"inconclusive [inhibitor, partial curve]"
23,COc1ccc(COCC(O)CN2CCC(CN3C(=O)c4cccc5cccc(c45)C3=O)CC2)cc1OC (stereo not drawn),"inconclusive [inhibitor, single point]"
24,Cc1cc(C)c2c(=O)n(CC(=O)NCCCN3CCN(c4ccccc4F)CC3)sc2n1,active: 4.61 µM
25,Cc1ccc(S(=O)(=O)N(C)C)cc1NC(=O)C1CCCN(C(=O)c2ccc(Cl)cc2)C1 (stereo not drawn),"inconclusive [inhibitor, single point]"

row,SMILES,Potency
1,CC(C)c1ccc(C(=O)CC2(O)C(=O)N(CN3CCOCC3)c3ccccc32)cc1 (stereo not drawn),"inconclusive [inhibitor, single point]"
2,CCOc1ccc(NC(=O)c2ccccc2NC(=O)CNC2CCCC(C)C2C)cc1 (stereo not drawn),active: 14.6 µM
3,CC(NC(=S)NC(=O)c1ccccc1)c1ccccc1 (stereo not drawn),inactive
4,Cc1cccc(N2CCN(C(=O)c3ccc4nc(N5CCCCC5)sc4c3)CC2)c1C,active: 20.6 µM
5,Cc1ccc(-n2nc3c(c2NC(=O)C(C)(C)C)CS(=O)(=O)C3)cc1,inactive
6,CCOc1ccc(C(=O)Nc2cccc(-c3nc4cccnc4o3)c2)cc1Cl,"inconclusive [inhibitor, single point]"
7,Cc1ccc(NC(=O)CCS(=O)(=O)c2ccc3c(c2)NC(=O)C(C)S3)nc1 (stereo not drawn),inactive
8,CN(CCOc1ccccc1)C(=O)c1cc(S(=O)(=O)N2CCOCC2)c(Cl)cc1Cl,active: 18.4 µM
9,c1ccc(Sc2ncnc3c2oc2ccccc23)nc1,"inconclusive [inhibitor, partial curve]"
10,COc1ccc(CCNC(=O)Cn2c(=O)n(Cc3ccco3)c(=O)c3ccc(Cl)cc32)cc1OC,"inconclusive [inhibitor, single point]"
11,Cc1ccc(C2=NOC(=O)/C2=C\c2ccccc2)cc1,"inconclusive [inhibitor, single point]"
12,O=C(CSCn1nnc2c(=O)[nH]c(Cc3ccc(F)cc3)nc21)Nc1cccc(C(F)(F)F)c1,"inconclusive [inhibitor, single point]"
13,COc1cccc(C2NC(=O)c3sc(=S)n(-c4ccccc4)c3N2)c1 (stereo not drawn),"inconclusive [inhibitor, partial curve]"
14,CCc1ccc(C(CNc2nc(C(F)(F)F)nc3ccccc23)N(C)C)cc1 (stereo not drawn),active: 16.4 µM
15,CCn1c(COc2ccc(Cl)cc2)nnc1SCc1nc2ccccc2[nH]1,"inconclusive [inhibitor, single point]"
16,c1cc2c3c(cccc3c1)NC1(CCCC1)N2,"inconclusive [inhibitor, single point]"
17,CSc1ccccc1NC(=O)c1ccccn1,active: 1.3 µM
18,CCc1ccc(CN2CCC(n3nccc3NC(=O)c3ccccc3C)CC2)cc1,active: 20.6 µM
19,COc1ccccc1-c1nnc(SCC(=O)N2CCCC2)o1,inactive
20,CC(Sc1nnc(-c2ccco2)n1C)C(=O)N1C(C)CCCC1C (stereo not drawn),inactive
21,CCc1ccccc1NC(=O)C(=O)NCCCN1CCOCC1,inactive
22,CC1(CCC(=O)N2CCCC(N3CCN(c4ccc(F)cc4)CC3)C2)CC1 (stereo not drawn),"inconclusive [inhibitor, partial curve]"
23,O=C(N/N=C\c1cc(Br)ccc1O)c1ccc(S(=O)(=O)N2CCCCC2)cc1,active: 4.11 µM
